# Data from the supplement of paper PMC3334620.
# Whole data set: some 33,000 sequences, median “E-score (-0.5 to 0.5)” near -0.036, cut for the highest 2% near 0.37. The list shows a part of the results.
# Target: T1, Yer064c (UniProt P40041)
# T1 sequence: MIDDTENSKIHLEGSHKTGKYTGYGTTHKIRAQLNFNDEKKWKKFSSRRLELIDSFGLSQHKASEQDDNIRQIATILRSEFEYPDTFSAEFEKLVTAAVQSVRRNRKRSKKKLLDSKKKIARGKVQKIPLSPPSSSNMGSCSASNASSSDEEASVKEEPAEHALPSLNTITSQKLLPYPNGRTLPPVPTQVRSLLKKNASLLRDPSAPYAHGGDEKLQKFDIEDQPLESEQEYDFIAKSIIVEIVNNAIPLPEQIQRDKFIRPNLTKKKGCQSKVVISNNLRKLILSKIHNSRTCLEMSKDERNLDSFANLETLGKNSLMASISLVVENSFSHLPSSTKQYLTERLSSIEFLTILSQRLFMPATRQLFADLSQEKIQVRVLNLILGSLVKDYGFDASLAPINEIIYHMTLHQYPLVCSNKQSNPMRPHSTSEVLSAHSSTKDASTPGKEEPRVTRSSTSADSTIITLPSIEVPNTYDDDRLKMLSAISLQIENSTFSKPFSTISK
# Assay: PBM E-score (8-mer binding enrichment) (E-score (-0.5 to 0.5)); higher = stronger / more preferred TF binding; most listed sequences are background and not binding sites
# Conditions: protein concentration: 200 nM; construct: GST-full length
# Method in brief: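 Each ungapped eight-base word and its reverse complement, pooled, received an E-score from the Universal PBM Analysis Suite. Underlying scans, normalised with masliner, recorded fluorescent anti-GST bound to GST-tagged yeast transcription factors. These were applied at about 100-200 nM to universal all-10-mer Agilent arrays double-stranded by primer extension.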
row,Sequence,PBM E-score
1,ATTAGCTG,0.0658
2,AGTAACGC,0.0217
3,AAACATGC,-0.0124
4,CTCATGAG,0.3
5,GAACTAGC,-0.171
6,CCATAAGA,0.0201
7,ATCCAAAA,0.0764
8,GCTTCAGA,-0.0612
9,CCTAGGCC,-0.316
10,AGATTCAG,0.167
11,CAAAGGGG,-0.227
12,ACTCTCCT,-0.0555
13,CGGAGTGA,0.196
14,AGCCAGCG,-0.15
15,ACTCTCTA,0.18
16,CAAAGATC,-0.00684
17,AATGTCAG,-0.0332
18,GCCGACGC,-0.14
19,ACCGGCAA,-0.11
20,AACAGCCG,-0.253
21,CAGATGAA,-0.0869
22,GACGACAC,0.125
23,ACAGCATA,-0.101
24,AGTTTACC,0.0731
25,GCAGCGCA,-0.0625

row,Sequence,PBM E-score
1,CTTTATCA,0.0842
2,CACAACTC,0.083
3,ATGCATCA,0.102
4,AAACGCCC,-0.245
5,GCATCTCA,-0.107
6,CAAACAAG,-0.00935
7,ATACAAGG,0.0972
8,AATGTGTA,0.222
9,GGAGACAC,0.139
10,CACTATAC,-0.184
11,AGGGACGG,-0.262
12,CGCCGCGC,-0.0918
13,GAGTGAAC,-0.0116
14,CAGAAGCC,-0.14
15,TATCGCAA,0.0863
16,AGCTCACG,0.0265
17,ACAAAGCA,-0.137
18,ACTTAACA,0.178
19,CGCTACAC,-0.0776
20,ATACCTGC,-0.274
21,CGAGACAA,-0.138
22,ATCGTAAT,0.0292
23,AGCTAATG,0.125
24,CCATTCAA,0.0772
25,GATGTGCA,0.0566

row,Sequence,PBM E-score
1,ATGTTTTC,-0.00164
2,ATCAAATA,0.195
3,CAAGAACG,-0.0323
4,ATGACGTA,0.0562
5,ATGGTTGC,-0.105
6,ACCCAGCA,-0.0529
7,ATCATCTA,0.239
8,ATCCTAAT,0.112
9,ATAGTGAC,0.124
10,CATTGGCG,-0.0381
11,CCTTGTTC,-0.169
12,CACCCAGA,-0.0135
13,GCAGCGAA,0.0639
14,CTACAGAC,-0.184
15,AGGAACAG,-0.203
16,ATTCTAGG,0.0267
17,ATCTGAGG,-0.097
18,GAATTGTC,-0.211
19,CGACCCAA,-0.0634
20,AGCAGAGG,-0.163
21,ACGTTCTC,-0.143
22,CTCCCGCC,-0.067
23,CGCTTCAC,-0.277
24,GGGGAACA,-0.21
25,ATACCCGA,-0.0409

row,Sequence,PBM E-score
1,ACTCTTGC,0.251
2,AGAGTAGG,-0.0527
3,AGGGTCCA,-0.142
4,ATGATAGG,0.039
5,AGTCAAAT,0.412
6,GCATACGC,-0.232
7,AGCAGTAA,0.00571
8,CAGAGCGA,0.163
9,GTGGTTTA,0.0183
10,TTATTCAA,0.161
11,AGGGGCGA,-0.106
12,AACCCTCG,-0.0322
13,GCGCGCCA,-0.204
14,ACATCTAA,0.0285
15,CCTCGCAA,-0.185
16,CTCCGGAG,0.115
17,GACTTAGA,0.347
18,ACATTGAG,0.029
19,CAACAAAA,-0.00719
20,TTACATAA,0.0751
21,CACCCTTC,-0.028
22,TCCGCGGA,0.148
23,AGGAAACG,-0.21
24,TGAGGCAA,-0.0948
25,CCCGTAAC,-0.194

row,Sequence,PBM E-score
1,ACTCTATG,0.122
2,ACGGTCAG,-0.109
3,ACTGTGAA,0.0208
4,ACTCGATC,0.144
5,CACTTGCA,0.0364
6,CAAGGCGA,0.00644
7,GGTGAGAA,-0.14
8,TCCAGAAA,-0.023
9,CAGTTACG,-0.098
10,CTAAGTGA,0.276
11,ATGCTATC,0.0685
12,AAATGCAG,0.0024
13,AGTTTGCA,-0.0277
14,GCGCCATA,-0.26
15,TCTTGCCA,-0.148
16,TCAGGGAA,-0.148
17,AATGGGTC,0.116
18,CACAGATC,-0.0384
19,CGTCGTAA,-0.108
20,CCGATCCC,-0.274
21,GGCACGAC,0.0192
22,AAGATTGG,-0.0208
23,AAATTCTG,-0.0269
24,ACCTAGTG,-0.00497
25,CAACTTCC,0.0718

row,Sequence,PBM E-score
1,CACAGCTC,-0.155
2,AGAGACTA,0.347
3,AAAGACAA,0.0115
4,ACCTGTTC,-0.112
5,CATGTGGG,0.0744
6,CACAGTGA,0.147
7,AACGGTTC,-0.0232
8,GTCAGTTA,0.0503
9,CCGGCAAA,-0.0685
10,ACACCATC,0.00758
11,AGCACAAT,0.0108
12,GTAATAAA,0.0858
13,GCACGTTA,-0.0515
14,ATCTACTG,0.0463
15,ACCGACGT,-0.0811
16,ACTTGCTC,-0.0163
17,CATTCACA,-0.00304
18,CCCAGGCG,-0.174
19,CTCTTCTC,-0.194
20,ACCATAAT,0.113
21,CATGTTTA,0.242
22,ACGGATAG,-0.19
23,GGAACTGA,-0.00126
24,CCAGAGCC,-0.19
25,CGCTTCTC,-0.207

row,Sequence,PBM E-score
1,GACTAATA,0.445
2,ATGTAAGG,-0.0358
3,ACGGCCGA,-0.00351
4,CAGCGTCG,-0.115
5,ACCTGTCC,-0.202
6,CTGGCCAC,-0.0845
7,GATCTATA,0.119
8,AGTTAGCC,0.127
9,CAAACCCG,-0.106
10,TGGTCGAA,-0.0649
11,AGTGAACA,-0.0788
12,TAGAAATA,0.0232
13,CGCTTTAG,0.031
14,GTTGTTGA,0.00507
15,GATTTGTA,0.0487
16,AGAATGCC,-0.0925
17,AATATGCG,-0.137
18,AATTTTGC,-0.127
19,AAGCCCTG,-0.27
20,GAAATGAC,0.319
21,GCAGGACC,-0.291
22,CCCATTCG,-0.0153
